# According to the supplement of paper PMC8728848:
# Some of the results follow.
# Assays:
# Test in all cases: glycan array binding signal (z-score within array); higher = stronger binding
# Conditions in all cases: glycan notation: IUPAC condensed, linker removed
# [1] = target: Neu5Ac(a2-3)Gal(b1-4)GlcNAc(b1-3)[Neu5Ac(a2-3)Gal(b1-4)GlcNAc(b1-6)]GalNAc
# Summary of the method: (§1)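 From the Consortium for Functional Glycomics database, 3228 arrays were curated, keeping only those whose protein sequence was available. Binding is given as a within-array Z-score averaged across arrays sharing a protein sequence and across linkers. Negative Z-scores can be read as non-binding.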
# [2] = target: Neu5Ac(a2-3)Gal(b1-4)GlcNAc(b1-6)GalNAc
# Summary of the method: as §1
# [3] = target: Neu5Ac(a2-3)Gal(b1-4)GlcNAc(b1-6)[Gal(b1-3)]GalNAc
# Summary of the method: as §1
# [4] = target: Neu5Ac(a2-3)Gal(b1-4)GlcNAc(b1-6)[Neu5Ac(a2-3)Gal(b1-3)]GalNAc
# Summary of the method: as §1
# [5] = target: Neu5Ac(a2-3)Gal(b1-4)GlcNAc6S
# Summary of the method: as §1
# [6] = target: Neu5Ac(a2-3)Gal(b1-4)[Fuc(a1-3)]GlcNAc
# Summary of the method: as §1
# [7] = target: Neu5Ac(a2-3)Gal(b1-4)[Fuc(a1-3)]GlcNAc(b1-2)Man
# Summary of the method: as §1
# [8] = target: Neu5Ac(a2-3)Gal(b1-4)[Fuc(a1-3)]GlcNAc(b1-3)Gal
# Summary of the method: as §1
# [9] = target: Neu5Ac(a2-3)Gal(b1-4)[Fuc(a1-3)]GlcNAc(b1-3)Gal(b1-4)GlcNAc
# Summary of the method: as §1
# [10] = target: Neu5Ac(a2-3)Gal(b1-4)[Fuc(a1-3)]GlcNAc(b1-3)Gal(b1-4)[Fuc(a1-3)]GlcNAc(b1-3)Gal(b1-4)[Fuc(a1-3)]GlcNAc
# Summary of the method: as §1
# [11] = target: Neu5Ac(a2-3)Gal(b1-4)[Fuc(a1-3)]GlcNAc(b1-3)GalNAc
# Summary of the method: as §1
# [12] = target: Neu5Ac(a2-3)Gal(b1-4)[Fuc(a1-3)]GlcNAc(b1-6)[Gal(b1-3)]GalNAc
# Summary of the method: as §1
# [13] = target: Neu5Ac(a2-3)Gal(b1-4)[Fuc(a1-3)]GlcNAc(b1-6)[Neu5Ac(a2-3)Gal(b1-3)]GalNAc
# Summary of the method: as §1
# [14] = target: Neu5Ac(a2-3)Gal(b1-4)[Fuc(a1-3)]GlcNAc6S
# Summary of the method: as §1
# [15] = target: Neu5Ac(a2-3)Gal6S(b1-4)GlcNAc
# Summary of the method: as §1
# [16] = target: Neu5Ac(a2-3)Gal6S(b1-4)[Fuc(a1-3)]GlcNAc
# Summary of the method: as §1
# Neu5Ac(a2-3)GalNAc = target: Neu5Ac(a2-3)GalNAc
# Summary of the method: as §1
# [17] = target: Neu5Ac(a2-3)GalNAc(b1-4)GlcNAc
# Summary of the method: as §1
# [18] = target: Neu5Ac(a2-3)[GalNAc(b1-4)]Gal(b1-4)Glc
# Summary of the method: as §1
# [19] = target: Neu5Ac(a2-3)[GalNAc(b1-4)]Gal(b1-4)GlcNAc
# Summary of the method: as §1
# [20] = target: Neu5Ac(a2-3)[GalNAc(b1-4)]Gal(b1-4)GlcNAc(b1-3)GalNAc
# Summary of the method: as §1
# [21] = target: Neu5Ac(a2-3)[Neu5Ac(a2-6)]GalNAc
# Summary of the method: as §1
# Neu5Ac(a2-6)Gal = target: Neu5Ac(a2-6)Gal
# Summary of the method: as §1
# [22] = target: Neu5Ac(a2-6)Gal(b1-3)GlcNAc(b1-3)[Gal(b1-4)GlcNAc(b1-6)]Gal(b1-4)Glc
# Summary of the method: as §1
# Neu5Ac(a2-6)Gal(b1-4)Glc = target: Neu5Ac(a2-6)Gal(b1-4)Glc
# Summary of the method: as §1
# [23] = target: Neu5Ac(a2-6)Gal(b1-4)GlcNAc
# Summary of the method: as §1
# [24] = target: Neu5Ac(a2-6)Gal(b1-4)GlcNAc(b1-2)Man
# Summary of the method: as §1
# [25] = target: Neu5Ac(a2-6)Gal(b1-4)GlcNAc(b1-2)Man(a1-3)Man(b1-4)GlcNAc(b1-4)GlcNAc
# Summary of the method: as §1
# [26] = target: Neu5Ac(a2-6)Gal(b1-4)GlcNAc(b1-2)Man(a1-3)[Gal(b1-4)GlcNAc(b1-2)Man(a1-6)]Man(b1-4)GlcNAc(b1-4)GlcNAc
# Summary of the method: as §1
# [27] = target: Neu5Ac(a2-6)Gal(b1-4)GlcNAc(b1-2)Man(a1-3)[GlcNAc(b1-2)Man(a1-6)]Man(b1-4)GlcNAc(b1-4)GlcNAc
# Summary of the method: as §1
# [28] = target: Neu5Ac(a2-6)Gal(b1-4)GlcNAc(b1-2)Man(a1-3)[GlcNAc(b1-4)][Neu5Ac(a2-6)Gal(b1-4)GlcNAc(b1-2)Man(a1-6)]Man(b1-4)GlcNAc(b1-4)GlcNAc
# Summary of the method: as §1
binder,measurement,setting,value
"Sebin1 (Coprinopsis cinerea), A8PEE3 (protein) MTSPFYAHIHNVQDDNTWRFTLIFANRATADEWWRAISEAPANTSIAKSITRVTPQYYTHDVNIWNIWNFFADGNIKSISERFRGRLFIVLENDRGGRGITVIPPVPIVDHVSGNWFYIRSKTAPHLFWYYDERRSSIYASKEKRTRFKISIRNPSSQTPKNAIMINTDDVTIHIKENLYVGVDNNLGHIIPTRAYRTFKFGELESGAIAGFDVVENIEERCSSTFDGASLSISGPDSSSPGEPWELV",glycan array binding signal (z-score),[1],-0.611
same,glycan array binding signal (z-score),[2],0.774
same,glycan array binding signal (z-score),[3],2.49
same,glycan array binding signal (z-score),[4],-0.249
same,glycan array binding signal (z-score),[5],-0.472
same,glycan array binding signal (z-score),[6],-0.207
same,glycan array binding signal (z-score),[7],0.27
same,glycan array binding signal (z-score),[8],0.029
same,glycan array binding signal (z-score),[9],-0.611
same,glycan array binding signal (z-score),[10],0.043
same,glycan array binding signal (z-score),[11],-0.864
same,glycan array binding signal (z-score),[12],0.053
same,glycan array binding signal (z-score),[13],0.95
same,glycan array binding signal (z-score),[14],-0.366
same,glycan array binding signal (z-score),[15],0.113
same,glycan array binding signal (z-score),[16],-0.3
same,glycan array binding signal (z-score),Neu5Ac(a2-3)GalNAc,-0.458
same,glycan array binding signal (z-score),[17],-0.285
same,glycan array binding signal (z-score),[18],-0.266
same,glycan array binding signal (z-score),[19],-0.391
same,glycan array binding signal (z-score),[20],0.337
same,glycan array binding signal (z-score),[21],-0.368
same,glycan array binding signal (z-score),Neu5Ac(a2-6)Gal,-0.809
same,glycan array binding signal (z-score),[22],-0.017
same,glycan array binding signal (z-score),Neu5Ac(a2-6)Gal(b1-4)Glc,-0.396
same,glycan array binding signal (z-score),[23],-0.487
same,glycan array binding signal (z-score),[24],-0.309
same,glycan array binding signal (z-score),[25],-0.4
same,glycan array binding signal (z-score),[26],0.09
same,glycan array binding signal (z-score),[27],-0.726
same,glycan array binding signal (z-score),[28],-0.053
